Source: the BET-seq Pho4 binding data (Le et al. 2018)
The list shows a part of the results. Values were computed here from the reads of four pooled replicates and scatter widely.

Molecular target: T1, Pho4 (S. cerevisiae) (UniProt P07270)
T1 sequence: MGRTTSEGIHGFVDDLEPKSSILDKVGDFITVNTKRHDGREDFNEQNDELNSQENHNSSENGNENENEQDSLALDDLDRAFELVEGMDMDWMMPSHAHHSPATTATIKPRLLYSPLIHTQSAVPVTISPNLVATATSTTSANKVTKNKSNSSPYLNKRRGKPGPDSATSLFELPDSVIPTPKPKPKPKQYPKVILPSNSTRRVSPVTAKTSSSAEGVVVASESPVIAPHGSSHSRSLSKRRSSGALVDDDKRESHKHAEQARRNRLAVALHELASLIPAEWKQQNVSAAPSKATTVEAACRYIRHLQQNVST
Test: relative binding free energy (BET-seq); higher = weaker binding
Settings: reference: library average

| Sequence | relative binding free energy [kJ/mol] |
| --- | --- |
| GAGGCCACGTGCTGGT | -0.126 |
| TGGCTCACGTGTCGGG | 0.628 |
| GGAGGCACGTGAGGAT | 0.544 |
| AATGTCACGTGAAATT | 0.753 |
| TTGTACACGTGGGCTG | -0.293 |
| ATTATCACGTGTATAG | -0.167 |
| CTTCTCACGTGGGTTG | 0.586 |
| TCCAGCACGTGTGTGG | 0.126 |
| CGGGTCACGTGGCAGT | 0.251 |
| AGTTACACGTGTGGGG | 0.586 |
| AGGATCACGTGAGTCT | 1.8 |
| GTTCGCACGTGAAGTT | 1.67 |
| GGGGACACGTGTTCTT | 0.46 |
| AAGGTCACGTGGACTT | 0.879 |
| GTAATCACGTGGGACT | 1.05 |
| ATAATCACGTGTATGC | 0.293 |
| GGATGCACGTGGGGGT | -0.209 |
| TATGGCACGTGTCAAT | 0 |
| TTTGACACGTGAGTCT | 0.669 |
| TGTTTCACGTGTTCTT | 1.34 |
| GTTAACACGTGTTTGG | 0.753 |
| CATTTCACGTGGTATA | 0.92 |
| GATTGCACGTGGTTGA | 0.335 |

| Sequence | relative binding free energy [kJ/mol] |
| --- | --- |
| TACGGCACGTGGTTTG | -1.05 |
| AGATACACGTGCTGGG | 0.502 |
| CGGTACACGTGCGTTT | 0.209 |
| AGTGACACGTGAGGTC | 0.879 |
| TTTTTCACGTGCTTTT | 1.51 |
| CGGTTCACGTGAGGTG | 1.63 |
| CCGGTCACGTGGAGGG | 0.46 |
| GAGGTCACGTGTAGCT | 0.711 |
| CGGCGCACGTGAGTTG | 0.46 |
| AATTGCACGTGGGTTC | -0.92 |
| TTTAGCACGTGGCAAG | -0.628 |
| GGCTGCACGTGTGGGG | 0.293 |
| CGGGACACGTGAGAGT | 1.21 |
| AAGATCACGTGATGTA | 1.13 |
| TCGTGCACGTGTGGGC | -0.628 |
| TGCTTCACGTGGTTAG | 1 |
| CAGTGCACGTGCTTGG | -0.46 |
| GATCGCACGTGTTATT | 0.167 |
| GCAATCACGTGTTGGT | 0.92 |
| GGTATCACGTGTACAG | 0.879 |
| AGTTGCACGTGAAATA | 1 |
| TGGGCCACGTGGCTGT | -1.34 |
| TTTAACACGTGGCGTG | 0.0418 |

| Sequence | relative binding free energy [kJ/mol] |
| --- | --- |
| GGAGTCACGTGTTCGT | 0.669 |
| GTGATCACGTGCTTTA | 0.879 |
| CGAATCACGTGGTGTA | 0.167 |
| GTTGTCACGTGATACT | 0.544 |
| TACGGCACGTGGTCGT | -0.628 |
| TTGGTCACGTGGTCAG | 0.167 |
| GAGGGCACGTGATGAA | 0.544 |
| AAGAGCACGTGGTGTG | -0.669 |
| TAAGACACGTGTTTAT | -0.209 |
| TGCTTCACGTGGTATG | 0.711 |
| GTATACACGTGATTTG | 0.795 |
| GAGTGCACGTGTGTGG | 0.377 |
| GATTGCACGTGATTGA | 1 |
| TCTGCCACGTGTTTGT | -0.544 |
| ATGTGCACGTGTTGAA | 0.335 |
| CGGTACACGTGTATAA | 0.753 |
| ATAACCACGTGAGGGT | 0.544 |
| TATAACACGTGGGATT | -0.46 |
| CGAGTCACGTGAGAGT | 1.17 |
| GTGCGCACGTGGGGCG | -0.879 |
| GCTTTCACGTGCGGTG | 1 |
| TTAAACACGTGTTAAG | -0.377 |
| GTAAACACGTGGGGAT | -0.167 |

| Sequence | relative binding free energy [kJ/mol] |
| --- | --- |
| GGTAGCACGTGGAGGA | -0.0418 |
| AGATACACGTGTACGT | 0.628 |
| GTCTGCACGTGAGTTG | 1.3 |
| AGGGACACGTGGGTTG | -0.335 |
| CAATGCACGTGTTTAT | 0 |
| TTTGTCACGTGTATCA | 0.544 |
| ATGAACACGTGGTTGA | -0.0418 |
| CTAGGCACGTGGATGT | -0.335 |
| CGTTGCACGTGGGCTG | -0.711 |
| GGTTGCACGTGTTAGT | 0.711 |
| CTTGGCACGTGTGGTA | -0.293 |
| GTTTGCACGTGTGATT | 0.795 |
| TATGGCACGTGAAAAT | 0.377 |
| GGTATCACGTGTTTTG | 0.628 |
| AGTATCACGTGATGGC | 0.879 |
| CCTGGCACGTGGTTTT | -0.251 |
| GGCTTCACGTGGTAAT | 1 |
| GCGGACACGTGTTGTG | 0 |
| GATCGCACGTGCTGGG | 0.251 |
| ACTAACACGTGGTGGG | 0 |
| TTTTGCACGTGATGGA | 0.544 |
| TGTAACACGTGCATGT | -0.544 |
| TGGGTCACGTGTAATA | 1.34 |

| Sequence | relative binding free energy [kJ/mol] |
| --- | --- |
| CTAGGCACGTGTATTG | -0.502 |
| GTGATCACGTGAGTTG | 1.34 |
| ATGGTCACGTGGGTTA | 0.0418 |
| TTGGCCACGTGCGAGG | -0.167 |
| GGGGTCACGTGTGGCG | 0.628 |
| CTTGACACGTGATATT | 0.92 |
| TTTTACACGTGTACAT | 0.711 |
| CTATGCACGTGTGAGG | 0.502 |
| ATGTACACGTGTCTTG | 0.167 |
| AATGGCACGTGTAAGC | 0.795 |
| CTTTGCACGTGGGAGG | 0.0837 |
| TTCCTCACGTGTTTGG | 1.05 |
| AGTAGCACGTGCTGGT | -1.38 |
| TGTTGCACGTGGATAG | -0.0418 |
| AAGGACACGTGGGCAG | -0.209 |
| ATGGGCACGTGTTAAT | -0.251 |
| TTTAACACGTGTGGTA | -0.0837 |
| TGCTCCACGTGGGGGT | -0.418 |
| AGCTTCACGTGGATTG | 0.167 |
| ATGAGCACGTGAATTG | 0.879 |
| CCATGCACGTGTTTGT | -0.167 |
| GAGTACACGTGTGATT | 0.795 |
| TTTGTCACGTGCCAGT | 0.377 |
